{"source": "paper PMC4336329", "about": "(PLoS ONE, 2015)", "note": "Hit rate of the full screen: of about 310,000 compounds, about 14,000 (4.5%) showed an effect of 50% or more. The effect is printed as a negative number. The list shows a part of the results.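 Also: peak tail current of the secondary pulse compared with the same well before compound.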"}
{"biological_target": "human ether-à-go-go-related gene (hERG) potassium channel (human, UniProt Q12809)", "sequence (Q12809 whole entry, looked up)": "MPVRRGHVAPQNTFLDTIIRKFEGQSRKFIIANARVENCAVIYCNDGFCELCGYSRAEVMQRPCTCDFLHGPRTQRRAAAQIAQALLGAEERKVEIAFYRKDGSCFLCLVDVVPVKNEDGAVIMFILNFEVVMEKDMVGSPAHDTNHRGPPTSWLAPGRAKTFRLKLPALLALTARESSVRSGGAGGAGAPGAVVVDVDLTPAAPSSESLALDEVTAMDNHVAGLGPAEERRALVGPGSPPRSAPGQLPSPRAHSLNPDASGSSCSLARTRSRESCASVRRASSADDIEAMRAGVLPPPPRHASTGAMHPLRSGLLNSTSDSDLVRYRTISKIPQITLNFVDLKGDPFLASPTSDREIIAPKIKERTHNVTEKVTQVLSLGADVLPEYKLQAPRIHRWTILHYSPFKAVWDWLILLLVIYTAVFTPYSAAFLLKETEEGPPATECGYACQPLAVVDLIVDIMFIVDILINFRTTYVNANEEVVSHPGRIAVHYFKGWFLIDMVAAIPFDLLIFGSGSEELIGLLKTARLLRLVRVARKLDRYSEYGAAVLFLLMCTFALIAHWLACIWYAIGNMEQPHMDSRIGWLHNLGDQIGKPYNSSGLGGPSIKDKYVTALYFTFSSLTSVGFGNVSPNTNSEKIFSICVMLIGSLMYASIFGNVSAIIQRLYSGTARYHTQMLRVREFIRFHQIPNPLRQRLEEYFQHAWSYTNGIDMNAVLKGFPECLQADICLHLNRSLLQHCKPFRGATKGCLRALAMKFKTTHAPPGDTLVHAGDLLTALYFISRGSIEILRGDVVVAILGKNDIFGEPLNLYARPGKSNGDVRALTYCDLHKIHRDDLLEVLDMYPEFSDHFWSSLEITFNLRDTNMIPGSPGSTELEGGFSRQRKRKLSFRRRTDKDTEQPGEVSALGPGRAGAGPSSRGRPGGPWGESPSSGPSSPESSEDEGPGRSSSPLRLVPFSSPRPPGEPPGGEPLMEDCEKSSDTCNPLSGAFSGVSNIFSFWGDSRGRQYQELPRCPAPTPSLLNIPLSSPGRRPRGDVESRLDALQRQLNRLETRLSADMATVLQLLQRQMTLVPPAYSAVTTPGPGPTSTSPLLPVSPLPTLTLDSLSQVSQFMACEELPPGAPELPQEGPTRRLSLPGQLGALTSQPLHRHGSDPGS", "assay": "primary screen, population patch clamp on CHO cells stably expressing hERG", "units": {"hERG current change (%, negative = inhibition) at 10uM": "%"}}
{"smiles": "O=C(CSc1ccc(-c2ccco2)nn1)NC1CCCC1", "hERG current change (%, negative = inhibition) at 10uM": -12}
{"smiles": "CCOc1ccccc1/C=C/c1onc(C)c1S(=O)(=O)N1CCC(C(=O)NC(C)(C)C)CC1", "hERG current change (%, negative = inhibition) at 10uM": 11.9}
{"smiles": "CCCOc1ccc(CSC(CC(=O)O)C(=O)O)cc1", "note": "(stereo not shown)", "hERG current change (%, negative = inhibition) at 10uM": -1.74}
{"smiles": "CC(=O)OCC(COC(C)=O)OC(C)=O", "hERG current change (%, negative = inhibition) at 10uM": 33.1}
{"smiles": "N#C/C(=N\\O)c1nc2ccccc2s1", "hERG current change (%, negative = inhibition) at 10uM": 16.6}
{"smiles": "CCOC(=O)c1sc(NC(=O)Cc2ccc(C)cc2)nc1C", "hERG current change (%, negative = inhibition) at 10uM": -46.5}
{"smiles": "Cc1cc(C=C2C(=O)NC(=S)NC2=O)c(C)n1C1CCCC1", "hERG current change (%, negative = inhibition) at 10uM": -2.09}
{"smiles": "CCN(CC)CCNCc1ccc(-c2ccc(Cl)cc2)o1.Cl", "hERG current change (%, negative = inhibition) at 10uM": -72.8}
{"smiles": "CN(C)Cc1nc2ccccc2c(=O)n1Cc1nc(-c2cc3ccccc3o2)cs1", "hERG current change (%, negative = inhibition) at 10uM": 9.3}
{"smiles": "CCOCCCNS(=O)(=O)c1cc(Br)cc2c1N(C(=O)C1CC1)CC2", "hERG current change (%, negative = inhibition) at 10uM": -17.8}
{"smiles": "c1ccc(OCCCCn2cnc3ccccc32)cc1", "hERG current change (%, negative = inhibition) at 10uM": -43}
{"smiles": "CC(C)c1ccc(CNc2ncc(Br)cn2)cc1", "hERG current change (%, negative = inhibition) at 10uM": 14.4}
{"smiles": "CCn1c(=O)n(CC)c2cc(S(N)(=O)=O)ccc21", "hERG current change (%, negative = inhibition) at 10uM": -7.36}
{"smiles": "CCOc1cc(-c2cc(-c3ccc(C)cc3)nc(N)c2C#N)ccc1O", "hERG current change (%, negative = inhibition) at 10uM": -3.7}
{"smiles": "CCc1ccc(-n2nnnc2SCC(=O)NNC(=O)c2ccco2)cc1", "hERG current change (%, negative = inhibition) at 10uM": -11.1}
{"smiles": "Cc1ccc(CNC(=O)COC(=O)c2cc3c(s2)CCC(C)C3)cc1", "note": "(stereo not shown)", "hERG current change (%, negative = inhibition) at 10uM": 17.6}
{"smiles": "N#CCSc1ccc2nc(-c3ccccc3)cn2n1", "hERG current change (%, negative = inhibition) at 10uM": -6.5}
{"smiles": "CC1(C)C2CCC(C2)C1(C)NC(=O)C[N+](C)(C)C.[Cl-]", "note": "(stereo not shown)", "hERG current change (%, negative = inhibition) at 10uM": 12.6}
{"smiles": "O=C(Cc1cccc(NC(=O)C2CCCN(C(=O)CCc3ccccc3)C2)c1)Nc1cccc(C(=O)N2CCCC2)c1", "note": "(stereo not shown)", "hERG current change (%, negative = inhibition) at 10uM": -39.5}
{"smiles": "Cc1ccc(NC(=O)CSc2nnc(NC(=O)CN3CCOCC3)s2)cc1", "hERG current change (%, negative = inhibition) at 10uM": -5.82}
{"smiles": "Cc1ccccc1CCNC(=O)C1CCC(=O)N(Cc2ccc(Cl)cc2)C1", "note": "(stereo not shown)", "hERG current change (%, negative = inhibition) at 10uM": -33.4}
{"smiles": "CCOC(=O)CSc1nnc(CNC(=O)c2cccs2)n1-c1cc(OC)ccc1OC", "hERG current change (%, negative = inhibition) at 10uM": -16.9}
{"smiles": "Brc1cccc(CNCCc2ccc3c(c2)OCO3)c1.O=C(O)C(=O)O", "hERG current change (%, negative = inhibition) at 10uM": -24.9}
{"smiles": "O=C(NCC1COCCO1)c1cc(COc2c(F)cccc2F)on1", "note": "(stereo not shown)", "hERG current change (%, negative = inhibition) at 10uM": 9.36}
{"smiles": "Cc1ccc2oc(C(=O)N3CCN(c4cccc(C)n4)CC3)c(C)c2c1", "hERG current change (%, negative = inhibition) at 10uM": 8.84}
{"smiles": "CSc1ncccc1C(=O)OCC(=O)Nc1ccc(S(=O)(=O)N2CCCC2)cc1", "hERG current change (%, negative = inhibition) at 10uM": -2.68}
{"smiles": "CS(=O)(=O)c1ccc2nc(NC(=O)CN3CCC(Cc4ccccc4)CC3)sc2c1", "hERG current change (%, negative = inhibition) at 10uM": -4.71}
{"smiles": "CCOC(=O)N1CCN(S(=O)(=O)c2ccc(F)c(C(=O)Nc3cccc(C)c3C)c2)CC1", "hERG current change (%, negative = inhibition) at 10uM": 7.02}
{"smiles": "CC(c1ccccc1)C(CC(=O)O)C(=O)Nc1ccc(Cl)c(Cl)c1", "note": "(stereo not shown)", "hERG current change (%, negative = inhibition) at 10uM": 13.8}
{"smiles": "O=C(COC(=O)C1(c2ccc(F)cc2)CCCC1)Nc1ncc(C(F)(F)F)cc1Cl", "hERG current change (%, negative = inhibition) at 10uM": -22.4}
{"smiles": "COc1cccc(N=CC2=C(O)CCCC2=O)c1", "hERG current change (%, negative = inhibition) at 10uM": 32.9}
{"smiles": "Cc1nc(N2CCC(C)CC2)c2c(C)c(C(=O)Nc3cccc(C(F)(F)F)c3)sc2n1", "hERG current change (%, negative = inhibition) at 10uM": 5.74}
{"smiles": "CC(C)Oc1ccc(CNC(=O)c2cc(S(=O)(=O)N3CCOCC3)cn2C)cc1", "hERG current change (%, negative = inhibition) at 10uM": 5.3}
{"smiles": "CCS(=O)(=O)N1CCC(NC(=O)C2CCCCC2)CC1", "hERG current change (%, negative = inhibition) at 10uM": 13.7}
{"smiles": "CCCCNC(=O)C1CCCNC1=O", "note": "(stereo not shown)", "hERG current change (%, negative = inhibition) at 10uM": 2.58}
{"smiles": "O=C(NCC1CCCO1)C(c1ccncc1)N(Cc1cccs1)C(=O)Cn1nnc(-c2ccc(F)cc2)n1", "note": "(stereo not shown)", "hERG current change (%, negative = inhibition) at 10uM": -60.1}
{"smiles": "CN(C)c1cccc(NC(=O)c2cccc3ccccc23)c1", "hERG current change (%, negative = inhibition) at 10uM": 15.4}
{"smiles": "Cc1ccc(NC(=O)C2COc3ccccc3O2)cc1", "note": "(stereo not shown)", "hERG current change (%, negative = inhibition) at 10uM": 2.06}
{"smiles": "O=S(=O)(c1ccc(Br)cc1)N1CCCC1", "hERG current change (%, negative = inhibition) at 10uM": -7.87}
{"smiles": "CCOC(=O)c1ccc(NC(=S)N(CCN(C)C)Cc2cccs2)cc1", "hERG current change (%, negative = inhibition) at 10uM": -9.16}
{"smiles": "Cc1cnnn1-c1ccc(C(=O)CCl)cc1", "hERG current change (%, negative = inhibition) at 10uM": 19.2}
{"smiles": "Cc1cc(C(F)(F)F)nn2cnnc12", "hERG current change (%, negative = inhibition) at 10uM": 16.5}
{"smiles": "Cc1cccc(C)c1NC(=O)CNC(=O)c1ccc(COc2ccccc2)o1", "hERG current change (%, negative = inhibition) at 10uM": -3.59}
{"smiles": "CCOC(=O)c1ccc(NC(=O)CSc2nccn2C)cc1", "hERG current change (%, negative = inhibition) at 10uM": 3.34}
{"smiles": "N#CCCSc1nc(N2CCOCC2)c2c(c1C#N)CCCC2", "hERG current change (%, negative = inhibition) at 10uM": -31.5}
{"smiles": "COc1ccccc1NC(=O)CCCC(=O)OCC(F)(F)C(F)F", "hERG current change (%, negative = inhibition) at 10uM": -1.37}
{"smiles": "CC(C)C(=O)Nc1nnc(SCC(=O)NCc2ccco2)s1", "hERG current change (%, negative = inhibition) at 10uM": -6.31}
{"smiles": "CCS(=O)(=O)N1CCN(Cc2c[nH]c3ccccc23)CC1.O=C(O)C(=O)O", "hERG current change (%, negative = inhibition) at 10uM": 5.44}
{"smiles": "CCc1nc2ccc(C)cc2c(C(=O)Oc2cccc3cccnc23)c1C", "hERG current change (%, negative = inhibition) at 10uM": 15.1}
{"smiles": "COc1cccc(/C=C/C(=O)OCC(=O)Nc2cccc(S(=O)(=O)N3CCOCC3)c2)c1OC", "hERG current change (%, negative = inhibition) at 10uM": -17.1}
{"smiles": "COc1ccc(OC)c(Nc2nc(-c3sc(NC(=O)CC(C)C)nc3C)cs2)c1", "hERG current change (%, negative = inhibition) at 10uM": 13.5}
{"smiles": "O=C(c1ccccc1)N1CCN(c2ncnc3c(-c4ccccc4)nsc23)CC1", "hERG current change (%, negative = inhibition) at 10uM": 6.38}
{"smiles": "CSc1nnc(C)c(/C=C/Nc2ccc(F)cc2)n1", "hERG current change (%, negative = inhibition) at 10uM": -5.65}
{"smiles": "CC(=O)C1C(c2cccc(F)c2)NC(=O)NC1(O)C(F)(F)F", "note": "(stereo not shown)", "hERG current change (%, negative = inhibition) at 10uM": 6.15}
{"smiles": "Cc1ccc(Nc2nc(N/N=C/c3c[nH]c4ccccc34)nc(N3CCOCC3)n2)cc1", "hERG current change (%, negative = inhibition) at 10uM": -3.42}
{"smiles": "CN1CCN(CCCNC(=O)c2cc3c(-c4ccc(Cl)cc4)nn(C)c3s2)CC1", "hERG current change (%, negative = inhibition) at 10uM": -40.1}
{"smiles": "Cc1c[n+]([O-])n(-c2ccc(C(=O)O)cc2)n1", "hERG current change (%, negative = inhibition) at 10uM": 0.473}
{"smiles": "Cn1c(=O)oc2cc(S(=O)(=O)NCc3ccncc3)ccc21", "hERG current change (%, negative = inhibition) at 10uM": 12.4}
